According to PubChem BioAssay AID488969 (Vanderbilt High Throughput Screening Facility, 2010):
Over roughly 110,000 compounds, “z-score” has its median near -0.1; the highest 2% begin near 2. This is one part of the list. Activity calls are given as the source filed them.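 The calls were made as follows: active = z-score in the third read window above 3 or below -3; inactive = the rest.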

What follows are compounds tested against Metabotropic glutamate receptor 8 (Rattus norvegicus) (UniProt P70579) (assay: rat mGluR8 modulators via GIRK flux, primary screen, cell-based, thallium flux, HTS (AID 488969)). Details: HEK293 rat mGluR8, GIRK (G protein-gated inwardly rectifying potassium channel) thallium flux, FluoZin2; at 10 µM; stronger effect = higher value; submaximal glutamate (EC20) added with thallium.
Chain of UniProt P70579 (P70579 whole entry, looked up): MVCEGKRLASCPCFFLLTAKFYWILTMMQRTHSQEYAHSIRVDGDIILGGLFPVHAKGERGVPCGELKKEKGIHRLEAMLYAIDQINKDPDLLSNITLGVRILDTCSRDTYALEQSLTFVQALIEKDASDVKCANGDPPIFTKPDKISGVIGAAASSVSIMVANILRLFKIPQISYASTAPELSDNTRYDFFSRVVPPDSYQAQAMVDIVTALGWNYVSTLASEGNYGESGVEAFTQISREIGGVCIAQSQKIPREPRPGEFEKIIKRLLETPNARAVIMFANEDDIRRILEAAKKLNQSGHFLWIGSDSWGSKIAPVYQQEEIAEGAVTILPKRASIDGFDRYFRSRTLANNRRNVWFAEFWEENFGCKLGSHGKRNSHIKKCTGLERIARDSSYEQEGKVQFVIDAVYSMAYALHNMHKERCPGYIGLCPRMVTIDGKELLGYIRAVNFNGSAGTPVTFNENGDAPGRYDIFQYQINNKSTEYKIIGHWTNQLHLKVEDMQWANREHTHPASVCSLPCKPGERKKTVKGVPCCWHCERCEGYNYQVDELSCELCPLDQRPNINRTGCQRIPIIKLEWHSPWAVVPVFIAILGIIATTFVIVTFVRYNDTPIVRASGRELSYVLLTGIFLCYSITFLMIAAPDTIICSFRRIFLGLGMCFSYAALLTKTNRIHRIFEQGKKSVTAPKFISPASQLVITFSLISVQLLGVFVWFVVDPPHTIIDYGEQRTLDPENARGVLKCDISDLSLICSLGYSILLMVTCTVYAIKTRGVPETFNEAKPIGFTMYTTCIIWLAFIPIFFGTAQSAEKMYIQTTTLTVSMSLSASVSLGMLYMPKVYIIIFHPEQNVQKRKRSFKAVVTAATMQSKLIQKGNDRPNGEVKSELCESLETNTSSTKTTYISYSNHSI

SMILES | z-score
CCCC(C)NC(=O)c1ccc2[nH]c3c(c2c1)CC(C)CC3 (stereo not given) | -0.815
O=C(O)Cn1nc(-c2ccccc2)oc1=O | -0.197
O=C(/C=C/Nc1cccc([N+](=O)[O-])c1)c1ccco1 | -0.108
CN(C)C(=O)CN(c1ccc2c(c1)OCO2)S(C)(=O)=O | -0.0253
CCC(=O)NC(C)C(c1cccs1)N1CCN(c2ccccc2)CC1 (stereo not given) | -0.365
O=c1[nH]c(SCc2cccc(Cl)c2)nc2c1CCCC2 | -0.579
CC1CCc2nn(CC(=O)NCCCN3CCOCC3)cc2C1 (stereo not given) | -0.0438
Cc1ccc(C2(CC(=O)N3CCCC3)CCOC(C(C)C)C2)cc1 (stereo not given) | -0.0604
CCc1nc(N2CCN(C(=O)c3ccco3)CC2)c2c3c(sc2n1)CCCC3 | -0.311
CC1(C)Cc2[nH]c(=O)c(C#N)cc2CS1 | 0.0257
CCN1C(=O)C(Cc2nc3ccccc3c(=O)n2-c2ccccc2)c2ccccc21 (stereo not given) | -0.788
CC(=O)NC1=NN(C(C)=O)C(C)(CS(=O)(=O)c2ccc(C)c(C)c2)S1 (stereo not given) | -0.323
CCN1CCN(c2nc(C)c3c(n2)CCCC3=O)CC1 | 0.0036
C=CCN1C(=O)CN=C1Nc1cc(C)cc(C)c1 | 0.608
COc1ccc(N2CC(NC(=O)NCCC(C)C)CC2=O)cc1 (stereo not given) | -0.149
Cc1ccccc1C(=O)NC(NC(=S)Nc1ccc(S(N)(=O)=O)cc1)C(Cl)(Cl)Cl (stereo not given) | -0.0195
COc1ccc(S(=O)(=O)N(CC(=O)NC(C)C)Cc2ccccc2)cc1 | -0.329
COc1ccccc1NC(=O)CNC(=O)c1ccccc1C | 0.371
O=C(/C=C1\NC2(CCCC2)Cc2ccccc21)N1CCOCC1 | -0.0389
Cc1cccc(C)c1OCC(=O)Nc1nnc(C2CCCO2)s1 (stereo not given) | -0.229
Cc1ccc(-n2c(Cc3cccs3)nnc2SCC(=O)Nc2ccc(F)c(F)c2)cc1 | -0.996
CCOC(=O)c1[nH]c2ccccc2c1NC(=O)CCN1CC(C)OC(C)C1 (stereo not given) | -0.182

SMILES | z-score
COc1ccccc1NC(=O)N1CCC(c2nnc(SCC(N)=O)n2C)CC1 | 0.198
CCOC(=O)CN(C(=O)CN1CCC(n2nnc3cc(C)ccc32)CC1)c1ccccc1 | -0.262
O=C1c2ccccc2C(Nc2ccc(S(=O)(=O)N3CCCCCC3)cc2)N1Cc1ccco1 (stereo not given) | -0.686
COCCNc1nc(SCC(=O)N2CCN(c3ccccc3OC)CC2)nc2ccccc12 | -0.345
CCOC(=O)Cn1c2c(c(=N)c3c1CCC3)CCCC2 | -0.104
CCc1nc(N2CCN(S(=O)(=O)c3ccc(Br)cc3)CC2)c2c(C)c(C)sc2n1 | -0.0531
CCn1cc(C(=O)O)c(=O)c2cc(Br)ccc21 | -0.0402
Cc1ccc(NC(=O)C(c2ccc(Cl)cc2Cl)N2CCCC2)cc1 (stereo not given) | -0.623
CCC(C)C1C(C#N)=C(N)Oc2n[nH]c(-c3ccccc3)c21 (stereo not given) | -1.15
COc1ccc(S(=O)(=O)N(C)CC(=O)NCCC2=CCCCC2)cc1OC | -0.175
CCOc1ccccc1-n1c(SCC(=O)NC(C)CC)nnc1-c1ccoc1C (stereo not given) | -0.551
COC(=O)c1ccccc1NC(=O)NCC1CCCO1 (stereo not given) | -0.359
Cc1ccc(C2C(C#N)=C(N)Oc3n[nH]c(-c4ccccc4)c32)o1 (stereo not given) | -0.499
O=C(NCc1ccccc1)NC1CC2CCC(C1)N2Cc1ccco1 (stereo not given) | 0.345
COc1ccc(CCn2c(=N)c(C(=O)NCc3ccco3)cc3c(=O)n4cccc(C)c4nc32)cc1 | -0.705
Clc1cccc(Nc2c3c(nc4ncnn24)CCC3)c1 | 0.0902
COc1ccc2nc(C)cc(SCC(=O)NNC(=O)COc3cccc4ccccc34)c2c1 | 0.0715
O=C(CSc1nc2c(c(=O)n1-c1ccc(F)cc1)SCC2)NCC1CCCO1 (stereo not given) | -0.639
C=CCn1cc(C(=O)N2CCN(C)CC2)c(=O)c2cc(S(=O)(=O)N3CCCC3)ccc21 | -0.00979
O=C1CC(c2ccccc2)Cc2nc3ncnn3cc21 (stereo not given) | -0.0228
Cc1ccc(S(=O)(=O)N2CCC(C(=O)NCc3ccncc3)CC2)cc1 | -0.238
Cc1ccc(C(=O)c2cncc(Br)c2)cc1 | -0.162

SMILES | z-score
O=C(CSc1nnc(CCc2nc3ccccc3[nH]2)n1-c1ccccc1)NCc1ccccc1 | -1.02
COC(=O)CC1=C(C)C(=O)CC2C(C)(C)CCCC12C (stereo not given) | 0.0399
O=C(O)/C(=C1\OC(=O)c2ccccc21)c1ccccc1 | -0.194
CCOc1c(OC(C)=O)ccc(/C=C/c2ccc3cccc(OC(C)=O)c3n2)c1[N+](=O)[O-] | -0.227
Cc1cc(C)nc(NC(=O)Cc2cccs2)n1 | 0.27
O=C(Nc1ccc(Cl)c([N+](=O)[O-])c1)c1cnccn1 | -0.322
S=C(NCCc1ccccc1)N1CCN(Cc2ccc(Cl)c(Cl)c2)CC1 | -0.404
CCCCCC1NC(=O)NC1CCCCCC(=O)O (stereo not given) | 0.269
COc1nc(-c2ccc(Cl)cc2)ccc1-c1noc(-c2ccncc2)n1 | -0.255
COC(=O)c1sc(NC(=O)C(C)C)c(C(=O)OC)c1C | 0.892
CCOc1ccc(S(=O)(=O)N2CCN(c3ccccc3OC)CC2)c2cccnc12 | 0.036
CCn1c(CNC(=O)c2ccco2)nnc1SCC(=O)Nc1cc(C(F)(F)F)ccc1Cl | -0.203
O=C(NCc1ccccc1)c1cccc(NC(=O)c2ccco2)c1 | -0.189
O=C(CN1N=C(c2ccccc2)CCC1=O)NCCN1CCc2ccccc2C1 | -0.165
Cc1nn(-c2ccccc2)c(Cl)c1/C=N/NC(=O)c1ccco1 | -0.687
COc1ccc(OCCNC(=O)C(c2ccccc2)c2ccccc2)cc1 | -0.173
NC(=O)/C=C\C(=O)Nc1cccc(C(F)(F)F)c1 | -0.114
CCN(CC)S(=O)(=O)c1ccc2oc(SCC3CN=C(c4ccc(OC)cc4)S3)nc2c1 (stereo not given) | -1.19
COc1ccccc1-c1nnc(NC(=O)c2ccccc2F)o1 | -0.0456
CCOC(=O)CSc1ccc2nnc(-c3cccnc3)n2n1 | 0.122
CCn1c(=O)n(CC(=O)NCc2ccccc2OC)c(=O)c2ccccc21 | -0.295
CCOc1ccc(NC(=O)CC2C(=O)N(c3ccc(OC)cc3)C(=O)N2CCc2cccs2)cc1 (stereo not given) | -0.164

SMILES | z-score
CCOC(=O)c1cnc(SCC(=O)Nc2cc(OC)ccc2OC)nc1N | -0.697
CCc1ccc(/C=c2\s/c(=C\C(=O)C(C)(C)C)[nH]c2=O)cc1 | active: 7.24
CCOC(=O)C1=C(c2ccccc2)O/C(=C(/C#N)C(F)(F)F)S1 | 1.84
Cc1cc(OCCOc2cccc3cccnc23)cc(C)c1Cl | -0.211
CN(C)c1ccc(C(CNS(=O)(=O)c2ccc3ccccc3c2)c2c[nH]c3ccccc23)cc1 (stereo not given) | -0.162
O=C(Cn1c(-c2cscn2)nc2ccccc21)Nc1ccccc1F | -0.043
NS(=O)(=O)c1ccc(CCNC(=O)CSc2nc3ccsc3c(=O)n2CC(=O)O)cc1 | 0.0148
CN1CCN(C2=Cc3ccc(Cl)cc3Sc3ccc(F)cc32)CC1 | -0.269
COc1cccc(-c2nc(N3CC(C)CC(C)C3)c3ccccc3n2)c1O (stereo not given) | -0.374
CCn1c(SCc2nc3ccccc3c(=O)[nH]2)nnc1-c1cccnc1 | -0.303
Cc1nn2c(-c3cccnc3)ccnc2c1-c1ccccc1 | -0.182
COc1ccc(/C=C2/N=C(SC3CCOC3=O)N(c3cccc(OC)c3)C2=O)cc1 (stereo not given) | 0.147
Cn1nnnc1SCCNCc1ccccc1F | -0.133
c1cnc2c(OCc3nc4ccccc4[nH]3)cccc2c1 | -1.47
Cc1nn(-c2ccccc2)c2c1C(=O)N(Cc1ccccc1)C(=O)C(C)(C)C2 | -0.384
Cc1ccc(C(=O)CSc2nnc(CNc3nc(-c4ccccc4)cs3)n2C)cc1 | 0.0587
Cc1cc(NC(=O)c2cc(C(C)C)on2)no1 | 1.12
CC(C)c1nnc(NC(=O)C2c3ccccc3Oc3ccccc32)s1 | 0.155
COc1ccc2nc(C)c3c(c2c1)OC(C)C3 (stereo not given) | -0.902
CCC(=O)Nc1cccc(C(=O)/C=C/c2cc(Br)ccc2OC)c1 | 0.532
CCCCN1CN(Cc2ccccc2)CNC1=S | 1.6
Cc1ccc(S(=O)(=O)NNC(=O)CCC(=O)Nc2ccc(C)cc2C)cc1 | 0.191

SMILES | z-score
Cc1cccnc1NC(=O)CSc1nnc(Cc2ccccc2)o1 | 0.255
O=C(NCCCCCCNC(=O)C1CCCC1)C1CCCC1 | -0.0526
COc1ccc2c(c1)S/C(=C\C(=O)c1ccncc1)N2C | 0.256
CCCCOC(=O)C(C#N)c1nc2ccccc2nc1N1CCN(Cc2ccc3c(c2)OCO3)CC1 (stereo not given) | 0.071
COc1ccc(NC(=O)c2c(C(F)(F)F)nn(C)c2SCc2ccccc2Cl)cc1 | -0.277
Cc1cc(NC(=O)CSc2ccc(-c3ccccc3)nn2)no1 | -1.96
O=C1C2C(c3ccccc3)C=CC(c3ccccc3)C2C(=O)N1CCO (stereo not given) | 0.0194
c1ccc(CNc2ncnc3nc[nH]c23)cc1 | -0.172
COc1ccc(-n2c(=S)[nH]c3cc(C(=O)Nc4ccc(OC)c(OC)c4)ccc3c2=O)cc1 | -0.144
O=C(NCCc1ccccc1)C1CCN(Cc2ccccc2F)CC1 | 0.0185
Cc1cccc(NC(=O)/C(C#N)=C\c2cccnc2)c1 | -0.898
Cn1c(=O)c2c(nc(N3CCN(c4ccccn4)CC3)n2Cc2ccccc2Cl)n(C)c1=O | -0.115
Cc1ccc(S(=O)(=O)c2nc(C(C)(C)C)oc2N2CCOCC2)cc1 | -0.0758
COCCNc1cc(NCCOC)c([N+](=O)[O-])cc1[N+](=O)[O-] | -0.226
CC1(C)CC(=O)C(C(C2=C(O)CC(C)(C)CC2=O)c2cccs2)C(=O)C1 (stereo not given) | -0.296
COc1cc(NC(=O)C2CC(=O)NC3=C2C(=O)CCC3)cc(OC)c1 (stereo not given) | -0.00411
O=C(CSc1oc(-c2cccs2)nc1S(=O)(=O)c1ccc(F)cc1)NCC1CCCO1 (stereo not given) | 0.671
C=C(C)CSC1=C(C#N)C(c2ccccc2)CC(=O)N1 (stereo not given) | -0.151
c1ccc(Cn2nnc3c(NCc4ccc5c(c4)OCO5)nc(C4CC4)nc32)cc1 | 0.425
Cc1cc(C(=O)CSc2nn(-c3ccccc3)c(=S)s2)c(C)n1Cc1ccco1 | -0.146
Cc1oc(-c2ccc(Cl)cc2)cc1-c1nn2c(-c3ccoc3C)nnc2s1 | 0.661
O=C(/C=C/c1ccccc1Cl)N(Cc1ccc(Cl)cc1)C1CCS(=O)(=O)C1 (stereo not given) | -1.55
